# Measurements: a collection of fitness landscapes (doi:10.1016/j.celrep.2020.107928)
# The full ranking holds about 81,000 sequences; the median of “one-hybrid fitness for binding parS DNA” is about -0.17, and the highest 2% start at about 0.51. The list shows a part of the results.
# B1: Caulobacter ParB omega fusion; a variant is named by its letters at X, in order, B8GW30 (parent)
# chain: MESVVVGEPGMSEGRRGLGRGLSALLGEVDAAPAQAPGEQLGGSREAPIEILQRNPDQPRRTFREEDLEDLSNSIREKGVLQPILVRPSPDTAGEYQIVAGERAWRAAQRAGLKTVPIMVRELDDLAVLEIGIIENVQRADLNVLEEALSYKVLMEKFERTQENIAQTIGKSXSHVANXMRLLXLPDEVQSYLVSGELTAXHARAIAAAADPVALAKQIIEGGLSVRETEALARKAPNLSAGKSKGGRPPRVKDTDTQALESDLSSVLGLDVSIDHRGSTGTLTITYATLEQLDDLCNRLTRGI
# Variants of: B1
# Experiment: one-hybrid fitness for binding parS DNA (scaled: cognate 1, non-cognate 0); higher = stronger binding
# Details: with parS DNA site
# Summary of the method: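 Fitness is the rescaled log change in variant-to-wild-type read ratio, measured by Illumina sequencing of plasmids before and after bacterial one-hybrid selection. The scale puts cognate at 1 and non-cognate at 0. Selection of Caulobacter ParB libraries, four specificity codons randomised, took place in E. coli USO with a HIS3 reporter, site 19 bp from the promoter, over 48 hours at 37°C on M9-minus-histidine with 0.1 mM IPTG and 5 mM 3-AT.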
row,Variant,one-hybrid fitness for binding parS DNA
1,PWNS,≤ 0.2
2,QTAS,≤ 0.2
3,NSGN,≤ 0.2
4,GWMY,≤ 0.2
5,KWNS,≤ 0.2
6,ERLL,≤ 0.2
7,CTNT,≤ 0.2
8,SPLW,≤ 0.2
9,RNKN,0.354
10,QVST,≤ 0.2
11,VNIG,≤ 0.2
12,NRNN,≤ 0.2
13,VHRH,≤ 0.2
14,WYHM,≤ 0.2
15,SHNL,≤ 0.2
16,WGTF,≤ 0.2
17,RLAP,≤ 0.2
18,HLAF,≤ 0.2
19,RNGQ,≤ 0.2
20,QESF,≤ 0.2
21,VESI,≤ 0.2
22,TETV,≤ 0.2
23,ITFI,≤ 0.2
24,TYMP,≤ 0.2
25,RMIK,≤ 0.2
26,PFRA,≤ 0.2

row,Variant,one-hybrid fitness for binding parS DNA
1,GGQP,≤ 0.2
2,YEHR,≤ 0.2
3,IYAT,≤ 0.2
4,SKRM,≤ 0.2
5,HDFS,≤ 0.2
6,PKKV,≤ 0.2
7,VTIL,≤ 0.2
8,NRIQ,≤ 0.2
9,RQKG,0.939
10,QLAW,≤ 0.2
11,SMTA,≤ 0.2
12,WHLM,≤ 0.2
13,GAAV,≤ 0.2
14,AHWG,≤ 0.2
15,EYNS,≤ 0.2
16,TIDA,0.235
17,TCAH,≤ 0.2
18,DCAF,≤ 0.2
19,NTYC,≤ 0.2
20,GIRS,≤ 0.2
21,QDIE,≤ 0.2
22,RFKM,0.357
23,INAM,≤ 0.2
24,QNHN,≤ 0.2
25,FWMS,≤ 0.2
26,QNDL,≤ 0.2

row,Variant,one-hybrid fitness for binding parS DNA
1,RHLE,≤ 0.2
2,GRNW,≤ 0.2
3,SVSN,≤ 0.2
4,QAAA,≤ 0.2
5,KMDF,≤ 0.2
6,IRTY,≤ 0.2
7,RARK,≤ 0.2
8,PEHR,≤ 0.2
9,PPWY,≤ 0.2
10,LDYR,≤ 0.2
11,GYYT,≤ 0.2
12,RLFQ,≤ 0.2
13,LVDG,≤ 0.2
14,DHDN,0.256
15,NYRH,≤ 0.2
16,SYNI,≤ 0.2
17,AFNC,≤ 0.2
18,FANW,≤ 0.2
19,YNRR,≤ 0.2
20,HCLN,≤ 0.2
21,SRNF,≤ 0.2
22,TMLF,≤ 0.2
23,NGGA,0.325
24,ERVE,≤ 0.2
25,VDPN,≤ 0.2
26,QRNA,≤ 0.2

row,Variant,one-hybrid fitness for binding parS DNA
1,VSTY,≤ 0.2
2,PSTY,≤ 0.2
3,PRLN,≤ 0.2
4,KWWG,≤ 0.2
5,WQPR,≤ 0.2
6,KQPI,≤ 0.2
7,PNPD,≤ 0.2
8,LSCC,≤ 0.2
9,MVKV,≤ 0.2
10,SYEV,≤ 0.2
11,AKHW,≤ 0.2
12,RNEK,≤ 0.2
13,RQNF,0.216
14,TGAL,≤ 0.2
15,TFNM,≤ 0.2
16,QSFE,≤ 0.2
17,TGYF,≤ 0.2
18,GKTI,≤ 0.2
19,VPNK,≤ 0.2
20,PINE,≤ 0.2
21,TPLP,≤ 0.2
22,KKVT,≤ 0.2
23,EFAA,≤ 0.2
24,LMQT,≤ 0.2
25,QHGE,≤ 0.2
26,FSLT,≤ 0.2

row,Variant,one-hybrid fitness for binding parS DNA
1,PWVD,≤ 0.2
2,YSME,≤ 0.2
3,AMRT,≤ 0.2
4,QRWF,≤ 0.2
5,ENQI,≤ 0.2
6,DRQR,≤ 0.2
7,GMDI,≤ 0.2
8,PGHQ,≤ 0.2
9,ECMV,≤ 0.2
10,RNVG,0.619
11,PMRP,≤ 0.2
12,AFMC,≤ 0.2
13,NAYR,≤ 0.2
14,NENV,≤ 0.2
15,NINL,≤ 0.2
16,FNDS,≤ 0.2
17,EIGR,≤ 0.2
18,VWTN,≤ 0.2
19,TAES,≤ 0.2
20,KEIS,≤ 0.2
21,NCTR,≤ 0.2
22,ALTF,≤ 0.2
23,ELVV,≤ 0.2
24,QGHV,≤ 0.2
25,QYLF,≤ 0.2
26,FHAG,≤ 0.2

row,Variant,one-hybrid fitness for binding parS DNA
1,CEPP,≤ 0.2
2,YPLP,≤ 0.2
3,RRNR,≤ 0.2
4,APHQ,≤ 0.2
5,YLDD,≤ 0.2
6,WLEY,≤ 0.2
7,MNRA,≤ 0.2
8,PEAF,≤ 0.2
9,CYPF,≤ 0.2
10,TLLR,≤ 0.2
11,RCQY,0.493
12,EAYD,≤ 0.2
13,CGGR,≤ 0.2
14,LDYG,≤ 0.2
15,WQKR,≤ 0.2
16,TTMR,≤ 0.2
17,GNDL,≤ 0.2
18,SYNG,≤ 0.2
19,NETS,≤ 0.2
20,RVIY,0.394
21,CMDR,≤ 0.2
22,QETD,≤ 0.2
23,KYGS,≤ 0.2
